# About 14,000 (4.5%) of roughly 310,000 compounds showed an effect of 50% or more. Effects have a minus sign here. The list shows a part of the results.
# Biological target: human ether-à-go-go-related gene (hERG) potassium channel (human, UniProt Q12809)
# Assay: primary screen, population patch clamp on CHO cells stably expressing hERG
# 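Further: peak tail current of the secondary pulse compared with the same well before compound.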
# Chain of human ether-à-go-go-related gene (hERG) potassium channel (Q12809 whole entry, looked up): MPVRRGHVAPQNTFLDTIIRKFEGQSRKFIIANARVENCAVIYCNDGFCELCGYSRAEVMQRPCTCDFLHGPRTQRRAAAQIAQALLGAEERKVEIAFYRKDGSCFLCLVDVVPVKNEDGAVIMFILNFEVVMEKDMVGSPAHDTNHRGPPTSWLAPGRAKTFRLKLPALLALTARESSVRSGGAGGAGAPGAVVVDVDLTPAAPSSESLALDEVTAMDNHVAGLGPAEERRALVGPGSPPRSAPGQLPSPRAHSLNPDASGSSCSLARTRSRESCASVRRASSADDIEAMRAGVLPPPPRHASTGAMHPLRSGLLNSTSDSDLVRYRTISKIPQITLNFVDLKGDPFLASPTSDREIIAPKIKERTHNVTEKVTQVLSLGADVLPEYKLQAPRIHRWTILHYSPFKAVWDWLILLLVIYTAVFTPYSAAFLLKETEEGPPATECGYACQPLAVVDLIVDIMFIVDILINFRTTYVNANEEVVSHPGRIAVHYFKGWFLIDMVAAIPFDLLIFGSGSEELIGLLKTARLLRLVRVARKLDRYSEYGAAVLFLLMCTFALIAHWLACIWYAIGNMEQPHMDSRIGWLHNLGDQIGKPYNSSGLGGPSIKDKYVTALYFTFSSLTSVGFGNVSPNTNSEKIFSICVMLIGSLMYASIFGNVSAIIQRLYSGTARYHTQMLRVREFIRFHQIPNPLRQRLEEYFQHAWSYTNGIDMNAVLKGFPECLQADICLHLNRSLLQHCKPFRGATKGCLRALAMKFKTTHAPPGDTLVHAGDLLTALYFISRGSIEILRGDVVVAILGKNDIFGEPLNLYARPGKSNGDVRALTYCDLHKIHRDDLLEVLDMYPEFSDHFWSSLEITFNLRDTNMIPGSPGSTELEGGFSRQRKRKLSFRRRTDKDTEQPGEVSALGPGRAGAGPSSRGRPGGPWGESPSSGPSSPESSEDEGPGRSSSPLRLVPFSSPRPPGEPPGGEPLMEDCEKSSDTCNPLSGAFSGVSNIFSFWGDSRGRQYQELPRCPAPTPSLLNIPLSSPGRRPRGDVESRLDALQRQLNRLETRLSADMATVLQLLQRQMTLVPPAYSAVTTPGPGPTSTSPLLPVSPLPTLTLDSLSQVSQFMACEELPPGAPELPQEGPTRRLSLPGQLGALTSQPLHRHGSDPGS
row,SMILES,"hERG current change (%, negative = inhibition) at 10uM"
1,CCCCCCCCCCOC(=O)Cn1c(COc2ccccc2OC)[n+](C)c2ccccc21.[Cl-],-77.3%
2,CS(=O)(=O)Nc1ccc(C(=O)Nc2ccc(S(=O)(=O)N3CCCCC3)cc2)cc1,-13.8%
3,CCSCCOC(=O)C1=C(C)N(C)C(=O)NC1c1cc(OC)ccc1OC (stereo not drawn),-17.5%
4,CCCCCCNC(=O)CCCCCNS(=O)(=O)c1ccc(OC)cc1,-32.3%
5,CCC(C(=O)NN1C(=O)c2ccccc2C1=O)c1ccccc1 (stereo not drawn),10.4%
6,Cc1nnc(NC(=O)C2CCN(C(=O)c3ccco3)CC2)s1,13.4%
7,COCCN1C(=O)C(=O)/C(=C(/O)c2ccc(S(=O)(=O)N3CCCCC3)cc2)C1c1ccc(OC)cc1 (stereo not drawn),20.4%
8,Cc1cc(C)cc(OCCCCCNCCO)c1,-15.1%
9,Cc1ccccc1NC(=O)CSC(N)=O,18.3%
10,NC(=O)CNC(=O)[C@@H]1CC2(CC(c3cccc(Br)c3)=NO2)CN1C(=O)c1ccc(Br)cc1 (stereo partly drawn),1.33%
11,COc1ccc(S(=O)(=O)N(C)C)cc1NC(=O)c1ccc2c(c1)NC(=O)C(C)S2 (stereo not drawn),12.7%
12,Cc1cc(C(F)(F)F)nc(CCNCc2c(C(=O)N3CCCC3)nc3ccccn23)n1,-14.4%
13,CC(C)CC(O)(CC(C)C)C(=O)NNc1ccccc1,7.57%
14,COc1ccc(CNC(=O)c2cccc3c2C(=O)N(Cc2cccnc2)C3)cc1,-38.6%
15,O=C(CSc1nnc(CNC(=O)c2cccs2)o1)Nc1ccc2c(c1)OCO2,13.5%
16,Cc1ccc(NCc2nnc(SC(C)C(=O)N/N=C/c3ccc(C)o3)n2-c2ccccc2)cc1 (stereo not drawn),-6.08%
17,COc1ccc(-c2noc(C3CCCN(C(=O)c4ccccc4OC)C3)n2)cc1OC (stereo not drawn),5.62%
18,NNC(=O)CNC(c1ccccc1)c1cc(Br)ccc1NC(=O)CCN1CCOCC1 (stereo not drawn),3.67%
19,CCN=C1SC(CC(=O)NCCc2ccc(OC)cc2)C(=O)N1CC (stereo not drawn),17.5%
20,CC/C(=N\NC(=O)c1c(-c2ccccc2)noc1C)c1ccc(C)o1,-0.958%
21,O=C(CSc1ncccc1C(=O)O)c1cccc(C(F)(F)F)c1,2.44%
22,COc1ccc(CC(=O)Nc2nc3ccccc3s2)cc1S(=O)(=O)N1CCOCC1,-65.9%

row,SMILES,"hERG current change (%, negative = inhibition) at 10uM"
1,Cc1cc(-n2cnnn2)cc(C)c1S(=O)(=O)N(C)c1ccccc1,-17.2%
2,CCOn1c(=O)c(-c2cccs2)[n+]([O-])c2ccccc21,-4.14%
3,Cn1c(O)c(C(=Nc2ccccc2)SCc2ccc(Cl)cc2)c(=O)n(C)c1=O,11.4%
4,Cn1cnnc1SCc1ccc(F)c2ccccc12,-8.61%
5,CC(=O)c1sc(-c2ccccc2)cc1NS(=O)(=O)c1ccccc1,15.1%
6,O=C(CCn1cnnn1)Nc1ccc(Cl)cc1Cl,9.42%
7,CC1CC(C)CN(c2nc(NCc3ccco3)nc(N)c2[N+](=O)[O-])C1 (stereo not drawn),-27.4%
8,CCCCN1C(=O)/C(=C/C=C2\N(C)c3ccccc3C2(C)C)SC1=S,15.6%
9,O=C(OCCN1C(=O)c2ccccc2C1=O)c1cc(=O)[nH]c2ccccc12,6.81%
10,CC(O)/C=C/c1cccc[n+]1C.[I-] (stereo not drawn),8.46%
11,O=[N+]([O-])c1ccc(Cl)cc1NCC1CCCO1 (stereo not drawn),-5.08%
12,CCOC(=O)c1c(C)[nH]c(C(=O)OC(C)C(=O)NCc2ccccc2)c1C (stereo not drawn),17.4%
13,CC(C)(C)OC(=O)N1CCC(c2c(C(=O)NC3CC3)cnn2-c2ccc(Cl)cc2)CC1,-3.61%
14,COc1cc(/C=C2/C(=N)N3C(=NC2=O)SN=C3S(C)(=O)=O)ccc1OS(=O)(=O)c1ccccc1,2.2%
15,O=C(O)c1ccc(Sc2nnnn2-c2ccccc2)c([N+](=O)[O-])c1,-2.2%
16,COc1ccc(NC(=O)C2CCCC2)cc1,14%
17,O=[N+]([O-])c1ccc(O)c(NC(=S)Nc2ccccc2)c1,23.9%
18,COc1ccc(C(CNC(=O)C(=O)NC2CCCCC2)N2CCN(C)CC2)cc1 (stereo not drawn),-27.7%
19,COc1cc(C2NC(=O)NC(O)(C(F)(F)F)C2C(=O)c2ccc(Cl)cc2)ccc1O (stereo not drawn),17.2%
20,COc1ccc(Cl)cc1NC(=O)CN(C)C(=O)Cc1ccsc1,-30%
21,N#CCC(=O)N/N=C/c1cccc(Oc2ccccc2)c1,-4.8%
22,CCN(C(=O)COc1ncnc2sccc12)c1ccccc1,63.8%

row,SMILES,"hERG current change (%, negative = inhibition) at 10uM"
1,Cc1cccc2c1=NC(=O)/C(=C/c1c(O)[nH]c(=O)[nH]c1=O)C=2,0.296%
2,Cc1cccc(C)c1NC(=O)CN(C)CC(=O)Nc1sc2c(c1C(N)=O)CCC2,-33.9%
3,CC(NC(=O)c1ccccc1F)c1nnc(SCC(=O)NC2=NCCS2)n1C (stereo not drawn),22.3%
4,CCCCCN(C(=O)CCC(=O)OCc1cc(C)ccc1C)c1c(N)n(CCCC)c(=O)[nH]c1=O,-49.7%
5,O=C(C(c1ccccc1)c1ccccc1)N1CCCc2ccccc21,11.2%
6,Cc1ccnc(NC(=O)C2CCCN(c3ncnc4c3nc3n4CCCCC3)C2)c1 (stereo not drawn),-45.6%
7,CC1CCN(c2ccc(C(=O)N3CCOCC3)cc2[N+](=O)[O-])CC1,-0.762%
8,Cc1cccc(NC(=O)CN2CCN(C(=O)C3CCN(C(=O)/C=C/c4ccccc4)CC3)CC2)c1C,-73.9%
9,CC(C)Nc1nc(Cl)nc(N(C#N)CN2C(=O)c3ccccc3S2(=O)=O)n1,-1.39%
10,CC(=O)Nc1ccc(S(=O)(=O)N2CCN(S(=O)(=O)c3ccccc3)CC2)cc1,11.7%
11,CC1CN(C(=O)CCc2cc(C(C)(C)C)c(O)c(C(C)(C)C)c2)CC(C)O1 (stereo not drawn),-5.44%
12,CCOC(=O)Cn1c(=O)oc2cc(S(=O)(=O)NCCCc3ccccc3)ccc21,-23.6%
13,CCOc1ncccc1C(=O)OCc1ccccc1,18.9%
14,Cc1cc(C(=O)N2CCN(Cc3ccccc3)CC2)ccc1[N+](=O)[O-],-32%
15,COC(=O)CSc1nccc(-c2cccs2)n1,17.3%
16,CNc1ccc(SC#N)cc1.Cl,27.6%
17,CSc1ccc(/C=N/NC(=O)CNc2cccc3ccccc23)cc1,8.83%
18,C/C(CC(=O)Nc1cc(C)ccn1)=N\NC(=O)c1cccc(F)c1,12.7%
19,CCOc1ccc2nc(SCC(=O)NC3CCS(=O)(=O)C3)[nH]c2c1 (stereo not drawn),6.47%
20,CSc1nnc(N2C(=O)C(O)=C(C(=O)c3ccco3)C2c2ccccc2)s1 (stereo not drawn),6.85%
21,C/C(N)=C(/C#N)C(=O)COC(=O)c1cc(C)n(-c2ccc(F)cc2)c1C,-9.29%
22,CC(Cc1ccccc1)C(=O)NCc1ccncc1 (stereo not drawn),-2.22%

row,SMILES,"hERG current change (%, negative = inhibition) at 10uM"
1,CCOC(=O)C(NC(=O)Nc1ccc(F)cc1F)(Oc1ccccc1)C(F)(F)F (stereo not drawn),-3.02%
2,Clc1ccccc1CSc1nnc(-c2ccncc2)o1,-14%
3,COc1cccc(C(=O)N(CN2CCCC2=O)c2cccc(Cl)c2)c1OC,0.626%
4,S=C(Nc1ccc(Cl)cc1)N1CCOCC1,0.368%
5,CC1Nc2ncnc(N3CCc4ccccc4C3)c2N(Cc2ccc(Br)cc2)C1=O.O=C(O)C(F)(F)F (stereo not drawn),1.81%
6,CC(=O)Nc1ccc(NS(=O)(=O)c2ccccc2)c2ccccc12,10.2%
7,CC1(C)CC(=O)C2=C(C1)NC(=O)NC2c1ccccc1Cl (stereo not drawn),16.3%
8,CC(OC(=O)CSc1ccc([N+](=O)[O-])cc1)C(=O)NCc1ccco1 (stereo not drawn),-8.82%
9,O=C(c1ccccc1)N1CCN(CC#Cc2ccccc2)CC1,-6.16%
10,COc1cccc(Cn2cccc(NC(=O)NC3CCCCC3)c2=O)c1,-13.8%
11,COc1ccccc1C1CCN(Cc2ccc3ccccc3c2)CC1,-75%
12,O=C(c1ccccc1)c1ccc2nc(Nc3ccccc3)c3nncn3c2c1,-23.4%
13,CCN(C(=O)CN1CCN(c2ccccc2)CC1)c1c(N)n(Cc2ccccc2)c(=O)[nH]c1=O,7.81%
14,CCCCC(c1nnnn1C1CCCC1)N1CCN(C2CCCC2)CC1.Cl (stereo not drawn),-85.6%
15,O=C1NC(NS(=O)(=O)c2ccc(Cl)cc2)(C(F)(F)F)C(=O)N1CCc1ccccc1 (stereo not drawn),15.3%
16,CC(C)Cn1nc(NC(=O)c2cccs2)c2cc3ccccc3nc21,-2.33%
17,O=C(NCCc1ccccc1)C1CCCN(S(=O)(=O)c2cnc[nH]2)C1 (stereo not drawn),-1.39%
18,Cn1cccc1Cc1nnc(SCC(=O)Nc2ccc3c(c2)OCO3)n1CCc1ccccc1,-26%
19,CC(=O)Nc1ccccc1C(=O)OCC(=O)Nc1ncccn1,8.44%
20,COc1ccc(-c2sc(NC(=O)c3ccc(C)cc3)nc2-c2ccc([N+](=O)[O-])cc2)cc1,9.66%
21,CN(C(=O)Oc1ccc(Cl)c2cccnc12)c1ccccc1,-26.5%

# Reference: publication PMC4336329 (PLoS ONE, 2015)
